What all share (assay): cell-based or functional assay
For assay [1], the target named is T1, intermediate-affinity hIL-2 receptor (IL-2Rβγ) on TF1+IL-2Rβ cells (human, UniProt P14784 27-551; P31785 23-369).
T1 sequence 1: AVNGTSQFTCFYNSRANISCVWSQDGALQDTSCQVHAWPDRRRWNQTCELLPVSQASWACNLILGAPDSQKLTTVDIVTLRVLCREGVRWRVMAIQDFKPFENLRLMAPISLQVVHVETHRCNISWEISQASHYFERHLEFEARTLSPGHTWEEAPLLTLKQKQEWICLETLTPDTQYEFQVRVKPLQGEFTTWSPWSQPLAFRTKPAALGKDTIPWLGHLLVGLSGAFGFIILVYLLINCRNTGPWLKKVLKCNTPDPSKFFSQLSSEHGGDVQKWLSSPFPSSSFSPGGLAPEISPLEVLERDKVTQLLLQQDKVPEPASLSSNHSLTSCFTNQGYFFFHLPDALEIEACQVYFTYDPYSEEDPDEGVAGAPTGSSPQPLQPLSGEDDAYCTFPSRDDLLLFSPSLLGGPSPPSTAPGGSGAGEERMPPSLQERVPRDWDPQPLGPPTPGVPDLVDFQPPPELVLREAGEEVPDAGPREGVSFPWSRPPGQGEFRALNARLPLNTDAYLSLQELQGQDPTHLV
T1 sequence 2: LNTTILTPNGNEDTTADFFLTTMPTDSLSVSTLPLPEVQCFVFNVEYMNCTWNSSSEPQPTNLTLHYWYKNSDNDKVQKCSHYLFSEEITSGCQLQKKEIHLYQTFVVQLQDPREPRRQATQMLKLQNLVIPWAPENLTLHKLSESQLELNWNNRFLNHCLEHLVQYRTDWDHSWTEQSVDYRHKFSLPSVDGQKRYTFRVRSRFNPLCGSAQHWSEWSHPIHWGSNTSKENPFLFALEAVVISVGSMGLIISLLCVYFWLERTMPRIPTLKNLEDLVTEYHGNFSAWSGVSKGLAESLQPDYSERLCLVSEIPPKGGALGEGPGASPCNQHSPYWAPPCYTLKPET

Assay [2] has as its target T2, high-affinity hIL-2 receptor (IL-2Rαβγ) on NK-92 cells (human, UniProt P01589 22-272; P14784 27-551; P31785 23-369).
T2 sequence 1: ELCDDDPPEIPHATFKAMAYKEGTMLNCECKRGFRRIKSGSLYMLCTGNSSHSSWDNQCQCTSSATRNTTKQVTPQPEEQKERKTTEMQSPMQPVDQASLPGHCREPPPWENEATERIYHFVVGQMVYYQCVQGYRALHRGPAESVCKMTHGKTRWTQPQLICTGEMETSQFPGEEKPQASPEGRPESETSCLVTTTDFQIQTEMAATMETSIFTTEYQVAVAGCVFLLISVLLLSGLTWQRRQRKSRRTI
T2 sequence 2: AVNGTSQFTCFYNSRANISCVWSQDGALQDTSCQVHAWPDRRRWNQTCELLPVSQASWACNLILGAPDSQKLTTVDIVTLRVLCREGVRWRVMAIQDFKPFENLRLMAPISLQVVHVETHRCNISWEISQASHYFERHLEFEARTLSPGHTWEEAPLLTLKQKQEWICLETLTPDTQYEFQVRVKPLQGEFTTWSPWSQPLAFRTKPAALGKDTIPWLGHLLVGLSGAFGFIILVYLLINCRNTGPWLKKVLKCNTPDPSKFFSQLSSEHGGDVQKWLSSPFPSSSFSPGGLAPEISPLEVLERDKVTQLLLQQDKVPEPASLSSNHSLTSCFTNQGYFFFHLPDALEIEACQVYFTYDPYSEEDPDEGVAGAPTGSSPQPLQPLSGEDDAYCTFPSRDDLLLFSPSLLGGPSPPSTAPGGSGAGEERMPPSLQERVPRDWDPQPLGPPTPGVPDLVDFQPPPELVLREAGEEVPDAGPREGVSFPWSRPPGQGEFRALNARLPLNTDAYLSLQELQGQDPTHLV
T2 sequence 3: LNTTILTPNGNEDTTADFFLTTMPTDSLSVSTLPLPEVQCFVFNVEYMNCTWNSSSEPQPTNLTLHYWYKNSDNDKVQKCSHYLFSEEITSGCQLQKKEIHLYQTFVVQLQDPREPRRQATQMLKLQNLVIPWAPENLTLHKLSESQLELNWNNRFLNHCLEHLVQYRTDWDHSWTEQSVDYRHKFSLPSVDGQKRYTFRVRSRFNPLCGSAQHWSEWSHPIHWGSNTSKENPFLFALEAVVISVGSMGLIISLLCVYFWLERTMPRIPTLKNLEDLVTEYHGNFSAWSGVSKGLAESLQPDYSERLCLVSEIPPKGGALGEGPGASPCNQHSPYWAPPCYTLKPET

Assay [3] addresses T1, intermediate-affinity hIL-2 receptor …. This is another data set of the same source.

B1: 1H3-hIgG1-L6-hIL-2 (T3A/D20A/R38E/C125A) (other)
heavy: EVQLVESGGGLVQPGRSLKLSCAVSGFTFSDYAMAWVRQAPKKGLEWVATISYDGSRTYYRDSVKGRFTISRDNAKITLYLQMDSLRSEDTATYYCARHGSGYFDYWGQGVMVTVSS[not shown - human IgG1 constant region]SGGGGSAPASSSTKKTQLQLEHLLLALQMILNGINNYKNPKLTEMLTFKFYMPKKATELKHLQCLEEELKPLEEVLNLAQSKNFHLRPRDLISNINVIVLELKGSETTFMCEYADETATIVEFLNRWITFAQSIISTLT
light: DTVLTQSPALAVSPGERVTISCRASESVRTGVHWYQQKPGQQPKLLIYGASNLESGVPARFSGSGSGTDFTLTIDPVEADDTATYFCQQSWNDPFTFGSGTKLEIKRTVAAPSVFIFPPSDEQLKSGTASVVCLLNNFYPREAKVQWKVDNALQSGNSQESVTEQDSKDSTYSLSSTLTLSKADYEKHKVYACEVTHQGLSSPVTKSFNRGEC
As to B1, in assay [1], the “Fold decrease from rhIL-2 (TF1 + IL-2Rβ + hPD-1)” value (“Fold decrease” below) worked out at 1080 fold.

B2: 1H3-hIgG1-L6-hIL-2 (D20T) (other)
heavy: EVQLVESGGGLVQPGRSLKLSCAVSGFTFSDYAMAWVRQAPKKGLEWVATISYDGSRTYYRDSVKGRFTISRDNAKITLYLQMDSLRSEDTATYYCARHGSGYFDYWGQGVMVTVSS[not shown - about 450 residues with a human IgG1 Fc and changes]
light: DTVLTQSPALAVSPGERVTISCRASESVRTGVHWYQQKPGQQPKLLIYGASNLESGVPARFSGSGSGTDFTLTIDPVEADDTATYFCQQSWNDPFTFGSGTKLEIKRTVAAPSVFIFPPSDEQLKSGTASVVCLLNNFYPREAKVQWKVDNALQSGNSQESVTEQDSKDSTYSLSSTLTLSKADYEKHKVYACEVTHQGLSSPVTKSFNRGEC
In the case of B2, the “Fold decrease” value in assay [1] was approximately 75 fold.

B3: 1H3-hIgG1-LAGA-df-hIL-2 (T3A/D20A/R38E/C125A) (other)
heavy: EVQLVESGGGLVQPGRSLKLSCAVSGFTFSDYAMAWVRQAPKKGLEWVATISYDGSRTYYRDSVKGRFTISRDNAKITLYLQMDSLRSEDTATYYCARHGSGYFDYWGQGVMVTVSS[not shown - human IgG1 constant region with L235A G237A (EU numbers)]APASSSTKKTQLQLEHLLLALQMILNGINNYKNPKLTEMLTFKFYMPKKATELKHLQCLEEELKPLEEVLNLAQSKNFHLRPRDLISNINVIVLELKGSETTFMCEYADETATIVEFLNRWITFAQSIISTLT
light: DTVLTQSPALAVSPGERVTISCRASESVRTGVHWYQQKPGQQPKLLIYGASNLESGVPARFSGSGSGTDFTLTIDPVEADDTATYFCQQSWNDPFTFGSGTKLEIKRTVAAPSVFIFPPSDEQLKSGTASVVCLLNNFYPREAKVQWKVDNALQSGNSQESVTEQDSKDSTYSLSSTLTLSKADYEKHKVYACEVTHQGLSSPVTKSFNRGEC
Take B3: in assay [1], the “Fold decrease” value is 6460 fold.

B4: H7-767 (other)
heavy: EVQLLESGGGLVQPGGSLRLSCAASGFTFKSYAMHWVRQAPGKGLEWVSAIVYSGGSTYYADSVKGRFTISRDNSKNTLYLQMNSLRAEDTAVYYCAKYDRASYFYDAMDVWGQGTTVTVSS[not shown - human IgG1 constant region with L235A G237A (EU numbers)]APASSSTKKTQLQLEHLLLALQMILNGINNYKNPKLTEMLTFKFYMPKKATELKHLQCLEEELKPLEEVLNLAQSKNFHLRPRDLISNINVIVLELKGSETTFMCEYADETATIVEFLNRWITFAQSIISTLT
light: EIVLTQSPGTLSLSPGERATLSCRASQSISSSFLAWYQQKPGQAPRLLIYDASDRATGIPDRFSGSGSGTDFTLTISRLEPEDFAVYYCQQYYDWPPLSFGGGTKVEIKRTVAAPSVFIFPPSDEQLKSGTASVVCLLNNFYPREAKVQWKVDNALQSGNSQESVTEQDSKDSTYSLSSTLTLSKADYEKHKVYACEVTHQGLSSPVTKSFNRGEC
In the case of B4, the “Fold change from rhIL-2 (NK-92)” value in assay [2] is more than 10000 fold. In assay [3], the “Fold change from rhIL-2 (TF1 + IL-2Rβ)” value was more than 10000 fold.

B5: 2H7-hIgG1-LAGA-df-hIL2 (T3A/R38E/I92D/C125A) (other)
heavy: EVQLLESGGGLVQPGGSLRLSCAASGFTFKDYCMTWVRQAPGKGLEWVSAIVYSGGSTYYADSVKGRFTISRDNSKNTLYLQMNNLRAEDTAVYYCAKYTRASYFYDAMDVWGQGTTVTVSS[not shown - human IgG1 constant region with L235A G237A (EU numbers)]APASSSTKKTQLQLEHLLLDLQMILNGINNYKNPKLTEMLTFKFYMPKKATELKHLQCLEEELKPLEEVLNLAQSKNFHLRPRDLISNINVDVLELKGSETTFMCEYADETATIVEFLNRWITFAQSIISTLT
light: EIVLTQSPGTLSLSPGERATLSCRASQSIGKSFLAWYQQKPGQAPRLLIYDASTRAADIPARFSGSGSGTDFTLTISSLEPEDFAVYYCQQYYDWPPLSFGGGTKVEIKRTVAAPSVFIFPPSDEQLKSGTASVVCLLNNFYPREAKVQWKVDNALQSGNSQESVTEQDSKDSTYSLSSTLTLSKADYEKHKVYACEVTHQGLSSPVTKSFNRGEC
Take B5: the “Fold change from rhIL-2 (NK-92)” value in assay [2] stood at 2720 fold. Moreover, in assay [3], the “Agonistic Activity (TF1 + IL-2Rβ)” value amounted to 80% and the “Fold change from rhIL-2 (TF1 + IL-2Rβ)” value is approximately 3400 fold.

B6: 2H7-hIgG1-LAGA-df-hIL2 (T3A/R38E/I92S/C125A) (other)
heavy: EVQLLESGGGLVQPGGSLRLSCAASGFTFKDYCMTWVRQAPGKGLEWVSAIVYSGGSTYYADSVKGRFTISRDNSKNTLYLQMNNLRAEDTAVYYCAKYTRASYFYDAMDVWGQGTTVTVSS[not shown - human IgG1 constant region with L235A G237A (EU numbers)]APASSSTKKTQLQLEHLLLDLQMILNGINNYKNPKLTEMLTFKFYMPKKATELKHLQCLEEELKPLEEVLNLAQSKNFHLRPRDLISNINVSVLELKGSETTFMCEYADETATIVEFLNRWITFAQSIISTLT
light: EIVLTQSPGTLSLSPGERATLSCRASQSIGKSFLAWYQQKPGQAPRLLIYDASTRAADIPARFSGSGSGTDFTLTISSLEPEDFAVYYCQQYYDWPPLSFGGGTKVEIKRTVAAPSVFIFPPSDEQLKSGTASVVCLLNNFYPREAKVQWKVDNALQSGNSQESVTEQDSKDSTYSLSSTLTLSKADYEKHKVYACEVTHQGLSSPVTKSFNRGEC
Consider B6, for which the “Fold change from rhIL-2 (NK-92)” value in assay [2] amounted to 9 fold. In assay [3], the “Fold change from rhIL-2 (TF1 + IL-2Rβ)” value was 30 fold.

B7: 2H7-hIgG1-LAGA-df-hIL2 (T3A/D20S/R38E/C125A) (other)
heavy: EVQLLESGGGLVQPGGSLRLSCAASGFTFKDYCMTWVRQAPGKGLEWVSAIVYSGGSTYYADSVKGRFTISRDNSKNTLYLQMNNLRAEDTAVYYCAKYTRASYFYDAMDVWGQGTTVTVSS[not shown - human IgG1 constant region with L235A G237A (EU numbers)]APASSSTKKTQLQLEHLLLSLQMILNGINNYKNPKLTEMLTFKFYMPKKATELKHLQCLEEELKPLEEVLNLAQSKNFHLRPRDLISNINVIVLELKGSETTFMCEYADETATIVEFLNRWITFAQSIISTLT
light: EIVLTQSPGTLSLSPGERATLSCRASQSIGKSFLAWYQQKPGQAPRLLIYDASTRAADIPARFSGSGSGTDFTLTISSLEPEDFAVYYCQQYYDWPPLSFGGGTKVEIKRTVAAPSVFIFPPSDEQLKSGTASVVCLLNNFYPREAKVQWKVDNALQSGNSQESVTEQDSKDSTYSLSSTLTLSKADYEKHKVYACEVTHQGLSSPVTKSFNRGEC
As for B7, in assay [2], the “Fold change from rhIL-2 (NK-92)” value is 6690 fold. In assay [3], the “Agonistic Activity (TF1 + IL-2Rβ)” value is 70% and the “Fold change from rhIL-2 (TF1 + IL-2Rβ)” value was approximately 9710 fold.

B8: 2H7-hIgG1-LAGA-df-hIL2 (T3A/H16E/R38E/C125A) (other)
heavy: EVQLLESGGGLVQPGGSLRLSCAASGFTFKDYCMTWVRQAPGKGLEWVSAIVYSGGSTYYADSVKGRFTISRDNSKNTLYLQMNNLRAEDTAVYYCAKYTRASYFYDAMDVWGQGTTVTVSS[not shown - human IgG1 constant region with L235A G237A (EU numbers)]APASSSTKKTQLQLEELLLDLQMILNGINNYKNPKLTEMLTFKFYMPKKATELKHLQCLEEELKPLEEVLNLAQSKNFHLRPRDLISNINVIVLELKGSETTFMCEYADETATIVEFLNRWITFAQSIISTLT
light: EIVLTQSPGTLSLSPGERATLSCRASQSIGKSFLAWYQQKPGQAPRLLIYDASTRAADIPARFSGSGSGTDFTLTISSLEPEDFAVYYCQQYYDWPPLSFGGGTKVEIKRTVAAPSVFIFPPSDEQLKSGTASVVCLLNNFYPREAKVQWKVDNALQSGNSQESVTEQDSKDSTYSLSSTLTLSKADYEKHKVYACEVTHQGLSSPVTKSFNRGEC
In the case of B8, in assay [2], the “Fold change from rhIL-2 (NK-92)” value was 126 fold. Besides, the “Fold change from rhIL-2 (TF1 + IL-2Rβ)” value in assay [3] came out at 122 fold.

(Values after patent publication US20240076343A1 (CEPHALON, published 2024).)
